The results in this text go back to ChEMBL document CHEMBL4888484, “Replenishing the malaria drug discovery pipeline: Screening and hit evaluation of the MMV Hit Generation Library 1 (HGL1) against asexual blood stage Plasmodium falciparum ,using a nano luciferase reporter read-out” (2022).

Hit rate of the full screen: of about 150,000 compounds, about 540 (0.36%) showed an effect of 50% or more. Some of the results follow.

The assay has as its system Plasmodium falciparum. Description: Primary screen in NF54 nanoGlo assay, in single point, at 2uM, 72h; a lower Z score goes with more inhibition. Type of assay: functional, Erythrocyte. Particulars: timepoint 72 hour.
As a reminder, the % Inhibition is the relative decrease from the control value, in per cent. As to `Cn1ccnc1-n1cc(-c2cccc(C(=O)O)c2)cn1`, the “% Inhibition” value was -9% and the Z score was found to be 1.38.

As to `CCN(CC)C(=O)[C@@H]1CCCN1C(=O)NCc1ccsc1`, the “% Inhibition” value is -10% and the Z score is reported as 1.82.

On to `CC(C)(C)CN1CCNC(=O)[C@@H]1CC(=O)NC1CCCCCCC1`, for which the “% Inhibition” value was determined as 6% and the Z score is given as -0.68.

As for `COc1cc(CN2CCS(=O)(=O)C(C)C2C)cc2c1OCCO2` (stereo unspecified), the “% Inhibition” value is recorded as -9% and the Z score was found to be 1.83.

Take `COCCn1c(-c2cc3c(C)cccc3[nH]2)nnc1N1CCCC1`: the “% Inhibition” value is 2% and the Z score is given as -0.38.

Turning to `CN(C)C(=O)C1CCN(CC(=O)N[C@H](c2ccccc2)C2CCCCC2)CC1`, the “% Inhibition” value is recorded as -7% and the Z score was 1.28.

For the compound `Cc1ncnc(OCC2CCN(C(=O)c3ccc(=O)[nH]c3)CC2)c1C`, the “% Inhibition” value was -11% and the Z score came to 1.19.

Consider `O=C(N[C@@H](Cc1ccccc1)C(=O)O)C1CCCO1` (stereo partly specified), for which the “% Inhibition” value is 2% and the Z score is -0.29.

Take `COC[C@H]1CCCN1[C@@H]1[C@H](O)[C@H](CO)O[C@@H]1CNS(=O)(=O)c1ccccc1`: the “% Inhibition” value was -3% and the Z score was 0.52.

As for `O=C(c1ccc2nsnc2c1)N1CCC(Oc2cccc3cccnc23)CC1`, the “% Inhibition” value is on record as -13% and the Z score is 2.41.

For `CNCC#CCOc1cc(C)cc(C)c1C`, the “% Inhibition” value is -17% and the Z score is given as 1.84.

Turning to `CCc1ccc(CN(C)Cc2cscn2)s1`, the “% Inhibition” value is 3% and the Z score is -0.67.

In the case of `CC(C)[C@H](Cn1nccn1)NC(=O)CC1CCCC1`, the “% Inhibition” value was -12% and the Z score amounted to 1.9.

Turning to `CC(C)c1nnsc1CN1CCC[C@@]2(C1)C(=O)Nc1ccccc12`, the “% Inhibition” value was found to be 5% and the Z score was -0.82.

Consider `CCCc1noc2c1-c1onc(O)c1C(C)(C)C2`, for which the “% Inhibition” value is given as -15% and the Z score turned out to be 2.96.

Turning to `CCc1cccc(NC(=O)Cn2nc(N3CCOCC3)c3ccccc3c2=O)c1`, the “% Inhibition” value was -8% and the Z score worked out at 1.47.

On to `COc1ccc(CC(=O)Nc2cc(S(=O)(=O)N3CCOCC3)ccc2N2CCOCC2)cc1OC`, for which the “% Inhibition” value was -4% and the Z score stood at 0.61.

Consider `CCN(C(=O)c1cc(N)ccc1Cl)C(C)C`, for which the “% Inhibition” value was found to be 6% and the Z score was -0.81.

Turning to `C[C@@H](CO)NC(=O)c1ccc(S(=O)(=O)N2C[C@H]3CC=CC[C@H]3C2)cc1`, the “% Inhibition” value is -5% and the Z score was determined as 0.6.

On to `Cn1cc(CCNC(=O)N(Cc2ccsc2)C2CCCC2)cn1`, for which the “% Inhibition” value is -4% and the Z score amounted to 0.75.

`Cn1c(=O)n([C@H]2CCCN(C(=O)c3cccnc3)C2)c2ncccc21`: the “% Inhibition” value was -17% and the Z score is on record as 2.21.

On to `CCCOc1cc(C)ccc1NCCCS(C)(=O)=O`, for which the “% Inhibition” value is given as -11% and the Z score was determined as 1.08.

With `Cc1ccc(C)c(NC(=O)c2cc(C(C)C)n(-c3ccccn3)n2)c1`, the “% Inhibition” value was -7% and the Z score is given as 0.69.

For `O=C1O[C@H]2CN(c3nc4ccccc4o3)C[C@H]2N1CCc1cccc(Cl)c1`, the “% Inhibition” value is -16% and the Z score is given as 1.94.

Regarding `COCCC1(c2noc(-c3ccc(F)cc3)n2)CCN(Cc2scnc2C)CC1`, the “% Inhibition” value worked out at 0% and the Z score amounted to 0.02.

As to `Clc1cc(CNCc2ccccc2)ccc1OCc1ccccc1`, the “% Inhibition” value is listed as 11% and the Z score is listed as -1.33.

On to `CC1(C)CCC[C@H](C(=O)Nc2cc(C(=O)O)ccn2)C1`, for which the “% Inhibition” value is reported as -4% and the Z score is reported as 0.81.

As for `COc1cccc(CNC(=O)CN(C[C@H]2CCCO2)C(=O)OC(C)(C)C)c1`, the “% Inhibition” value was -12% and the Z score stood at 1.28.

With `Cc1cc(C)c(CN2CCC(C)CC2)cc1CN[C@@H](C)c1nncn1C`, the “% Inhibition” value is listed as -7% and the Z score was found to be 1.41.

For the compound `NC(=O)c1cc(-c2cc(NC3CCCC3)nc3[nH]ccc23)ccc1F`, the “% Inhibition” value was -11% and the Z score came out at 1.04.

For the compound `Cc1nnc(NCCc2noc([C@@H]3CCCO3)n2)o1`, the “% Inhibition” value is 11% and the Z score was -1.24.

Regarding `Cc1cc(=O)n(CC(=O)Nc2ccccc2)c(N2CCCC2)n1`, the “% Inhibition” value is -34% and the Z score was 3.69.

In the case of `CCC(C)(C)NS(=O)(=O)c1cc(C)ccc1C`, the “% Inhibition” value is listed as -4% and the Z score is listed as 0.68.

Consider `O=C1NCCN(C(=O)c2cnc3c(c2)CCCC3)[C@H]1c1cccc(F)c1`, for which the “% Inhibition” value came out at 14% and the Z score was -1.98.

For `CC1CCC(NC(=O)N(C)CC2(CO)CC2)c2ccccc21` (stereo unspecified), the “% Inhibition” value is 5% and the Z score was -0.7.

Take `CCc1nn(C)cc1CN(C)[C@H]1CC(=O)N(Cc2ccccc2)C1=O`: the “% Inhibition” value is -1% and the Z score came out at 0.14.

As for `CCOc1c(OC)cccc1[C@H]1CC(=O)Nc2ccsc21`, the “% Inhibition” value is given as -8% and the Z score was found to be 0.97.

With `O=C(Nc1ccc(F)c(F)c1F)c1ccnc(OCC2CC2)c1`, the “% Inhibition” value was -4% and the Z score came to 0.52.

For `CCOC(=O)N1CCN(C(=O)c2cc3n(n2)CCN(Cc2ccccc2)C3=O)CC1`, the “% Inhibition” value is listed as -11% and the Z score amounted to 1.39.

Turning to `O=C1N[C@H](C(=O)Nc2cccc(-c3cnc[nH]3)c2)Cc2ccccc21`, the “% Inhibition” value is recorded as 11% and the Z score is recorded as -1.55.

For the compound `Clc1ccccc1/C=C/c1nc2ccccc2nc1N1CCOCC1`, the “% Inhibition” value is reported as -15% and the Z score was determined as 2.64.

Turning to `O=C(c1ccnc(OCC2CC2)c1)N1CCc2ccccc21`, the “% Inhibition” value was -16% and the Z score was determined as 3.07.

In the case of `CCN1CC[C@@]2(CCC1=O)CN(C(=O)CCc1ccccc1)CCN2C`, the “% Inhibition” value is reported as -14% and the Z score is recorded as 1.78.
